# PubChem BioAssay AID588342 (National Center for Advancing Translational Sciences (NCATS), 2011)
# Among all 360,000 compounds or so, about 25,000 (6.9%) were called active. Inconclusive means that the source gave no clear call. Such entries were picked first, then a sample of the others. The call rests on the fitted dose curve; in most records, active means well fitted inhibition curve with a large enough effect; inconclusive means small, poorly fitted or top-dose-only effect; inactive means flat fitted curve, though single readings scatter. Where the call is inconclusive, the potency comes from a doubtful curve fit.
# Molecular target: Luciferin 4-monooxygenase (Photinus pyralis) (UniProt P08659)
# Test: qHTS profiling assay for firefly luciferase inhibitor/activator using purifed enzyme and Km concentrations of substrates (counterscreen for miR-21 project); further: nearly all actives have a fitted effect of over 55% in size;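 on activity change, negative = inhibition: plate controls were vehicle for no effect and reference inhibitor for full effect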
# Details: purified FLuc, luminescence inhibition; series mostly up to 57.5 µM; activity change, negative = inhibition: at the top concentration
# Procedure, shortened: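 Biochemical qHTS of compounds, final roughly 60 µM downward over six points, against 10 nM purified firefly luciferase using Km concentrations of substrates (10 uM D-luciferin, 10 uM ATP) in Tris acetate pH 7.5 buffer; luminescence output.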
# Potency means the concentration at half of the fitted maximal effect; tags describe the fitted curve by direction and shape.
# UniProt P08659, sequence (P08659 whole entry, looked up): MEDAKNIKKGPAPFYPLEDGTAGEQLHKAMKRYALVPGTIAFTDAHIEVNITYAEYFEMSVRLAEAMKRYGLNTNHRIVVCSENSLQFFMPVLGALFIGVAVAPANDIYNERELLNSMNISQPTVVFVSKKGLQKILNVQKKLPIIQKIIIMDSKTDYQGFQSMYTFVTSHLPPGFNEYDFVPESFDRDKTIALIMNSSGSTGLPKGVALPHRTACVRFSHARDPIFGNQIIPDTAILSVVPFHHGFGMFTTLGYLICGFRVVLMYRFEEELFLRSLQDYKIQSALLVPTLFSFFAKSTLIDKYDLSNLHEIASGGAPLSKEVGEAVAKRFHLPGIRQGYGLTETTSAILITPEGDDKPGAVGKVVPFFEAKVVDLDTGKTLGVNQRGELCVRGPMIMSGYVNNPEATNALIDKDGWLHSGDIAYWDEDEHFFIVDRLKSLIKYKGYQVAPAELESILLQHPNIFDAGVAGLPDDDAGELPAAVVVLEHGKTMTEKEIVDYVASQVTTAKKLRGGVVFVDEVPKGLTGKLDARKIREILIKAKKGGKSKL
Structure (SMILES),"activity change, negative = inhibition",Potency
Cc1cccc(NC(=O)CSc2nc3ccccc3nc2N2CCCCC2)c1C,inactive: 0.403%,
O=C(Nc1ccc(F)cc1F)Nc1ccccc1C(=O)NCCN1CCNC1=O,,"inconclusive: 37.9 µM [inhibitor, partial curve, poor fit]"
Cc1cc(C)n2nc(SCC3COc4ccccc4O3)nc2n1 (stereo not given),,"inconclusive: 21.3 µM [inhibitor, partial curve, poor fit]"
Oc1ccc(/C=N/N2CCCCC2)cc1O,,"inconclusive: 26.9 µM [inhibitor, partial curve, poor fit]"
O=C(O)C1Cc2ccccc2CN1C(=O)COc1ccc(Cl)cc1Cl (stereo not given),,"inconclusive: 10.7 µM [inhibitor, partial curve]"
CC(C)(C)c1ccc(COn2c(=O)c(-c3ccco3)[n+]([O-])c3ccccc32)cc1,,"inconclusive: 30.1 µM [inhibitor, single point]"
O=C(Cc1cccc2ccccc12)Nc1cccnc1,inactive: 3.68%,
N#Cc1ccsc1NC(=O)c1ccc(Cl)c([N+](=O)[O-])c1,,active: 6.01 µM
O=C(Cn1c(=O)n(-c2cccc(Cl)c2)c(=O)c2sc3ccccc3c21)NC1CCCCC1,inactive: 2.72%,
Oc1ccccc1Nc1nc(NCc2ccco2)c2ccccc2n1,,"inconclusive: 37.9 µM [inhibitor, single point]"
CCN(CC)S(=O)(=O)c1ccc2c(c1)nc(CCC(=O)OCC(=O)N1CCc3ccccc31)n2C,,"inconclusive: 37.9 µM [inhibitor, partial curve, poor fit]"
C=CCN1C(=O)c2cccc3c(N4CCCCC4)ccc(c23)C1=O,,"inconclusive: 16.9 µM [inhibitor, partial curve]"
O=C(COc1ccccc1)Nc1cccc(-c2nn[nH]n2)c1,,"inconclusive: 26.9 µM [inhibitor, single point]"
NS(=O)(=O)c1ccc(NC(=S)NNC(=O)c2ccc(Br)o2)cc1,,"inconclusive: 30.1 µM [inhibitor, single point]"
Cc1ccc(NC(=O)CCNC(=O)c2ccc([N+](=O)[O-])cc2)cc1C,inactive: 1.32%,
O=C1OCCC1Sc1nnc(-c2ccc(Br)cc2)o1 (stereo not given),,active: 6.01 µM
Cc1ccc2c(c1)c(/C=C/c1cc[n+](C)cc1)c(C)n2C,inactive: 0.683%,
O=c1c(-c2ccc(O)cc2O)coc2cc(O)cc(O)c12,,"inconclusive: 30.1 µM [inhibitor, partial curve, poor fit]"
Cc1ccc(C(=O)NCCCc2ccccc2)c(C)c1,,active: 8.49 µM
CN1CCN(C(=O)CCN2C(=O)/C(=C\c3ccc(Cl)cc3Cl)SC2=S)CC1,,"inconclusive: 23.9 µM [inhibitor, single point]"
Cc1cc2nc(-c3cccc(NC(=O)C(C)C)c3C)oc2cc1C,,active: 0.478 µM
Cc1cnc(NC(=O)CC(C)c2ccccc2)s1 (stereo not given),,"inconclusive: 26.9 µM [inhibitor, partial curve, poor fit]"
CCc1c(C)nc(SCc2nc(-c3ccccc3)no2)[nH]c1=O,,"inconclusive: 13.5 µM [inhibitor, partial curve]"

Structure (SMILES),"activity change, negative = inhibition",Potency
O=C(c1cc(-c2ccccc2O)on1)N1CCCCC1,,active: 8.49 µM
CC1Cc2ccccc2N1S(=O)(=O)c1cccc(C(=O)Nc2cccnc2)c1 (stereo not given),inactive: 3.47%,
O=C(OC1CCOC1=O)c1ccc(-c2nc3ccccc3s2)s1 (stereo not given),,active: 0.19 µM
Nc1ccc([N+](=O)[O-])cc1C(=O)NNC(=O)c1ccco1,,"inconclusive: 37.9 µM [inhibitor, single point]"
COC(=O)Cc1c(C)nc2nc(-c3ccccc3)[nH]n2c1=O,,active: 16.9 µM
CC(C)(C)c1ccc(C(=O)NCc2cccnc2)cc1,,"inconclusive: 19 µM [inhibitor, partial curve]"
Cc1cc(OCC(=O)OCC(=O)N2CCc3ccccc3C2)ccc1Cl,inactive: -1.42%,
COc1ccc(-n2c(C)cc(C(=O)CN3C(=O)NC4(CCCc5sccc54)C3=O)c2C)cc1 (stereo not given),inactive: 1.37%,
CCOc1ccc(-c2cc(C(=O)NCc3ccccc3Cl)c3ccccc3n2)cc1,,"inconclusive: 10.7 µM [inhibitor, partial curve]"
O=C(Nc1cc([N+](=O)[O-])ccc1O)c1cccc([N+](=O)[O-])c1,,"inconclusive: 19 µM [inhibitor, single point]"
O=C1Cc2cc(CCN3CCN(c4nsc5ccccc45)CC3)c(Cl)cc2N1,inactive: -0.384%,
Cc1cc(C)cc(NS(=O)(=O)c2ccc3[nH]cc(C(=O)NC4CCCCC4)c(=O)c3c2)c1,,"inconclusive: 9.53 µM [inhibitor, partial curve]"
O=C(Nc1ccccc1)c1nnsc1S(=O)c1ccc(Cl)cc1 (stereo not given),,"inconclusive: 10.7 µM [inhibitor, partial curve]"
C/C(=N\NC(=O)c1c[nH]c2ccccc12)c1ccc(C)o1,,"inconclusive: 26.9 µM [inhibitor, partial curve]"
O=C(O)CC(NC(=O)C12CC3CC(CC(C3)C1)C2)c1cc([N+](=O)[O-])ccc1Cl (stereo not given),,"inconclusive: 30.1 µM [inhibitor, partial curve, poor fit]"
COC(=O)CSc1ccc(-c2nc3ccc(C)cc3[nH]2)cn1,,active: 2.69 µM
O=[N+]([O-])c1ccc(C2=Nn3c(Cn4nnc5ccccc54)nnc3SC2)cc1,,"inconclusive: 21.3 µM [inhibitor, partial curve, poor fit]"
COC(=O)/C=C1\SC(=NC(=O)c2cccc(Cl)c2)NC1=O,,"inconclusive: 23.9 µM [inhibitor, partial curve, poor fit]"
COc1ccc(-c2nc(CS(=O)(=O)CC(=O)Nc3ccc(Cl)cc3)c(C)o2)cc1,,"inconclusive: 12 µM [inhibitor, partial curve, poor fit]"
CCc1ccc(NC(=S)Nc2cc(C(=O)O)ccc2N2CC3CC(C2)c2cccc(=O)n2C3)cc1 (stereo not given),,"inconclusive: 26.9 µM [inhibitor, single point]"
CC(=NCCCn1ccnc1)c1c(C)[nH]n(-c2ccc([N+](=O)[O-])cc2)c1=O,inactive: -3.87%,
CCc1ccc(O)c(C(=O)c2cnc3cc(-c4ccc(C)cc4)nn3c2)c1,inactive: -12.2%,
